Results taken from the supplement of paper PMC8728848.
Some of the results follow.

Tests used:
Assay in all cases: glycan array binding signal (z-score within array); higher = stronger binding
Settings in all cases: glycan notation: IUPAC condensed, linker removed
[1] = molecular target: Gal(b1-4)GlcNAc(b1-3)Gal(b1-4)Glc
Summary of the method: (§1)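 Negative Z-scores can be read as non-binding. The Z-score is calculated within each array and then averaged across arrays of one protein sequence at different concentrations or buffers and across linkers. Arrays, 3228 in all, were curated from the Consortium for Functional Glycomics database and kept only where the protein sequence was available.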

[2] = molecular target: Gal(b1-4)GlcNAc(b1-3)Gal(b1-4)GlcNAc
Summary of the method: as §1

[3] = molecular target: Gal(b1-4)GlcNAc(b1-3)Gal(b1-4)GlcNAc(b1-3)Gal(b1-4)GlcNAc
Summary of the method: as §1

[4] = molecular target: Gal(b1-4)GlcNAc(b1-3)Gal(b1-4)[Fuc(a1-3)GlcNAc(b1-6)]Gal(b1-4)Glc
Summary of the method: as §1

[5] = molecular target: Gal(b1-4)GlcNAc(b1-3)Gal(b1-4)[Fuc(a1-3)]GlcNAc(b1-3)Gal(b1-4)[Fuc(a1-3)]GlcNAc
Summary of the method: as §1

[6] = molecular target: Gal(b1-4)GlcNAc(b1-3)GalNAc
Summary of the method: as §1

[7] = molecular target: Gal(b1-4)GlcNAc(b1-3)[Gal(b1-4)GlcNAc(b1-6)]Gal(b1-4)GlcNAc
Summary of the method: as §1

[8] = molecular target: Gal(b1-4)GlcNAc(b1-3)[Gal(b1-4)GlcNAc(b1-6)]GalNAc
Summary of the method: as §1

[9] = molecular target: Gal(b1-4)GlcNAc(b1-3)[GlcNAc(b1-6)]Gal(b1-4)GlcNAc
Summary of the method: as §1

[10] = molecular target: Gal(b1-4)GlcNAc(b1-6)Gal(b1-4)GlcNAc
Summary of the method: as §1

[11] = molecular target: Gal(b1-4)GlcNAc(b1-6)GalNAc
Summary of the method: as §1

[12] = molecular target: Gal(b1-4)GlcNAc(b1-6)[Gal(b1-3)]GalNAc
Summary of the method: as §1

[13] = molecular target: Gal(b1-6)Gal
Summary of the method: as §1

[14] = molecular target: Gal3S(b1-3)GalNAc
Summary of the method: as §1

[15] = molecular target: Gal3S(b1-3)GlcNAc
Summary of the method: as §1

[16] = molecular target: Gal3S(b1-3)[Fuc(a1-4)]GlcNAc
Summary of the method: as §1

[17] = molecular target: Gal3S(b1-4)Glc
Summary of the method: as §1

[18] = molecular target: Gal3S(b1-4)Glc6S
Summary of the method: as §1

[19] = molecular target: Gal3S(b1-4)GlcNAc
Summary of the method: as §1

[20] = molecular target: Gal3S(b1-4)GlcNAc6S
Summary of the method: as §1

[21] = molecular target: Gal3S(b1-4)[Fuc(a1-3)]Glc
Summary of the method: as §1

[22] = molecular target: Gal3S(b1-4)[Fuc(a1-3)]Glc6S
Summary of the method: as §1

[23] = molecular target: Gal3S4S(b1-4)GlcNAc
Summary of the method: as §1

[24] = molecular target: Gal3S6S(b1-4)GlcNAc
Summary of the method: as §1

[25] = molecular target: Gal3S6S(b1-4)GlcNAc6S
Summary of the method: as §1

[26] = molecular target: Gal4S(b1-4)GlcNAc
Summary of the method: as §1

[27] = molecular target: Gal4S6S(b1-4)GlcNAc
Summary of the method: as §1

[28] = molecular target: Gal6S(b1-3)GlcNAc
Summary of the method: as §1

[29] = molecular target: Gal6S(b1-3)GlcNAc6S
Summary of the method: as §1

[30] = molecular target: Gal6S(b1-4)Glc
Summary of the method: as §1

[31] = molecular target: Gal6S(b1-4)Glc6S
Summary of the method: as §1

[32] = molecular target: Gal6S(b1-4)GlcNAc
Summary of the method: as §1

[33] = molecular target: Gal6S(b1-4)GlcNAc6S
Summary of the method: as §1

[34] = molecular target: GalNAc(a1-3)Gal
Summary of the method: as §1

[35] = molecular target: GalNAc(a1-3)GalNAc
Summary of the method: as §1

[36] = molecular target: GalNAc(a1-3)GalNAc(b1-3)Gal(a1-4)Gal(b1-4)Glc
Summary of the method: as §1

[37] = molecular target: GalNAc(a1-3)GalNAc(b1-3)Gal(a1-4)Gal(b1-4)GlcNAc
Summary of the method: as §1

[38] = molecular target: GalNAc(b1-3)Gal
Summary of the method: as §1

[39] = molecular target: GalNAc(b1-3)Gal(a1-4)Gal(b1-4)GlcNAc
Summary of the method: as §1

[40] = molecular target: GalNAc(b1-3)Gal(a1-4)Gal(b1-4)GlcNAc(b1-3)Gal(b1-4)Glc
Summary of the method: as §1

[41] = molecular target: GalNAc(b1-3)Gal(a1-6)Gal(b1-4)Glc
Summary of the method: as §1

[42] = molecular target: GalNAc(b1-3)GalNAc
Summary of the method: as §1

[43] = molecular target: GalNAc(b1-4)Gal(b1-4)Glc
Summary of the method: as §1

[44] = molecular target: GalNAc(b1-4)GlcNAc
Summary of the method: as §1

[45] = molecular target: GalNAc(b1-4)GlcNAc(b1-2)Man(a1-3)[GalNAc(b1-4)GlcNAc(b1-2)Man(a1-6)]Man(b1-4)GlcNAc(b1-4)GlcNAc
Summary of the method: as §1

B1: GNAT (Pseudomonas aeruginosa), Q9HV14 (protein)
chain: MQLSHRPAETGDLETVAGFPQDRDELFYCYPKAIWPFSVAQLAAAIAERRGSTVAVHDGQVLGFANFYQWQHGDFCALGNMMVAPAARGLGVARYLIGVMENLAREQYKARLMKISCFNANAAGLLLYTQLGYQPRAIAERHDPDGRRVALIQMDKPLEP
[1]
  glycan array binding signal (z-score): 0.935
[2]
  glycan array binding signal (z-score): 1.75
[3]
  glycan array binding signal (z-score): -0.351
[4]
  glycan array binding signal (z-score): 0.293
[5]
  glycan array binding signal (z-score): 0.003
[6]
  glycan array binding signal (z-score): -0.363
[7]
  glycan array binding signal (z-score): -0.269
[8]
  glycan array binding signal (z-score): 1.36
[9]
  glycan array binding signal (z-score): 0.59
[10]
  glycan array binding signal (z-score): 0.092
[11]
  glycan array binding signal (z-score): 0.089
[12]
  glycan array binding signal (z-score): -0.145
[13]
  glycan array binding signal (z-score): -0.102
[14]
  glycan array binding signal (z-score): -0.487
[15]
  glycan array binding signal (z-score): -0.414
[16]
  glycan array binding signal (z-score): -0.441
[17]
  glycan array binding signal (z-score): -0.394
[18]
  glycan array binding signal (z-score): 3.17
[19]
  glycan array binding signal (z-score): -0.396
[20]
  glycan array binding signal (z-score): -0.322
[21]
  glycan array binding signal (z-score): -0.301
[22]
  glycan array binding signal (z-score): 6.54
[23]
  glycan array binding signal (z-score): -0.461
[24]
  glycan array binding signal (z-score): -0.303
[25]
  glycan array binding signal (z-score): -0.379
[26]
  glycan array binding signal (z-score): -0.465
[27]
  glycan array binding signal (z-score): -0.427
[28]
  glycan array binding signal (z-score): -0.358
[29]
  glycan array binding signal (z-score): -0.1
[30]
  glycan array binding signal (z-score): -0.356
[31]
  glycan array binding signal (z-score): -0.434
[32]
  glycan array binding signal (z-score): -0.282
[33]
  glycan array binding signal (z-score): 0.187
[34]
  glycan array binding signal (z-score): -0.297
[35]
  glycan array binding signal (z-score): -0.283
[36]
  glycan array binding signal (z-score): -0.385
[37]
  glycan array binding signal (z-score): -0.373
[38]
  glycan array binding signal (z-score): -0.348
[39]
  glycan array binding signal (z-score): -0.284
[40]
  glycan array binding signal (z-score): -0.33
[41]
  glycan array binding signal (z-score): -0.41
[42]
  glycan array binding signal (z-score): -0.427
[43]
  glycan array binding signal (z-score): -0.354
[44]
  glycan array binding signal (z-score): -0.403
[45]
  glycan array binding signal (z-score): 0.908
